# Over roughly 33,000 sequences, “E-score (-0.5 to 0.5)” has its median near -0.054; the highest 2% begin near 0.35. Some of the results follow.
# Molecular target: T1, Stb5 (UniProt P38699)
# T1 sequence: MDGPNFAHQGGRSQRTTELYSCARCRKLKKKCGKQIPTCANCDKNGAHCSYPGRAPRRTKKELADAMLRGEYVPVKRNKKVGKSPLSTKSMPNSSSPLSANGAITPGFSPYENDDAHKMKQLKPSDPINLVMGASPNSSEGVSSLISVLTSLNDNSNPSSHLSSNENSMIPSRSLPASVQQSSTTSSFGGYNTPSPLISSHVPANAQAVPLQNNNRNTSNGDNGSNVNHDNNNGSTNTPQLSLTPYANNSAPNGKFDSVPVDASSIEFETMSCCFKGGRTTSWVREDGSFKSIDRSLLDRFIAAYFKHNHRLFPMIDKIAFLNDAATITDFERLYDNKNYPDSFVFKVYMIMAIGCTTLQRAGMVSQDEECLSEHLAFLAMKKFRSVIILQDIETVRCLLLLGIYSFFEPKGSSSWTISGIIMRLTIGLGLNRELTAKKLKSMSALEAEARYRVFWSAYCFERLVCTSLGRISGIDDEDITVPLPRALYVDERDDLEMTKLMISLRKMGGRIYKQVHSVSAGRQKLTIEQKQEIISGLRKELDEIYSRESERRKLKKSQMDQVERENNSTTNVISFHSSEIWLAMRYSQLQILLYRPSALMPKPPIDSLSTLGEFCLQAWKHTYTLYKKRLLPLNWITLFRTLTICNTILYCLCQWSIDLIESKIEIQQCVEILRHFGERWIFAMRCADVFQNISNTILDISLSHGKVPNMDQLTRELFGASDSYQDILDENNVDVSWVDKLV
# Assay: PBM E-score (8-mer binding enrichment) (E-score (-0.5 to 0.5)); higher = stronger / more preferred TF binding; most listed sequences are background and not binding sites
# Settings: protein concentration: 200 nM; construct: GST-full length
# In short: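 Universal all-10-mer Agilent arrays, double-stranded by primer extension on fresh or once-stripped slides, were probed with about 100-200 nM GST-tagged yeast transcription factors made by PURExpress. Fluorescent anti-GST detected bound protein, and masliner normalised the scans. E-scores from the Universal PBM Analysis Suite were given to each ungapped eight-base word pooled with its reverse complement.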
row,Sequence,PBM E-score
1,CGGCCCAA,0.244
2,CGGAACCA,0.276
3,ACCGCGAG,0.288
4,TTAGTAAA,0.0358
5,GACTAGCC,-0.161
6,TCTATAAA,-0.0844
7,CCCATGCA,-0.227
8,ACAACTAT,-0.138
9,CATCTTAC,-0.165
10,AGCATAGG,-0.0842
11,ACACTAGA,0.00688
12,ATAGTCGA,-0.258
13,CGGATATC,0.193
14,AGTCGCTC,-0.148
15,ACTTCTGG,-0.108
16,ATCTGAAC,-0.223
17,CAGCATTC,-0.231
18,CATGACAC,-0.0362
19,CGATGCTA,0.095
20,CCCTAAGC,-0.106
21,CAGGGTGA,-0.204
22,CGTGCGCA,-0.0891
23,CAAGTCTG,-0.278
24,CCAACATA,-0.0617
25,AACGGATG,0.0921

row,Sequence,PBM E-score
1,CGTCTACA,-0.00368
2,CTCTCATA,-0.183
3,TGGCCGAA,0.0346
4,GTTCGGTA,0.206
5,ACTTTGTG,-0.141
6,GTTACATA,0.109
7,GCCTGCAC,-0.196
8,ACGCGGGA,0.0654
9,ACCAAATA,-0.128
10,CGCCACGA,0.0762
11,CTCCATTA,0.106
12,AAGGTGAT,0.117
13,CGTGCCAG,-0.231
14,AGGCAGCA,-0.105
15,ACCACAAA,0.0622
16,CCTTAGAC,0.0245
17,AATATAAT,-0.0847
18,CCGACGAC,0.312
19,ATCGTCCC,0.134
20,GTTGCCGA,0.221
21,AAGCGTCG,0.0529
22,GACCGAGA,0.203
23,CCCTCCAG,-0.06
24,AACCTCGC,-0.0263
25,CCTACGCA,-0.0806

row,Sequence,PBM E-score
1,TAACTTGA,-0.222
2,GCCATCAA,-0.231
3,CGTCTTCC,0.0107
4,AGCCTACT,-0.154
5,GACGTGCA,-0.196
6,CCCTACCC,-0.238
7,AATATTCG,-0.0349
8,AGGCCTCG,-0.16
9,AGATGACT,-0.138
10,GCAAACGC,-0.04
11,GAATTCGC,-0.0352
12,ATGCTCCA,-0.175
13,CGACGCCG,0.331
14,AAAAGAGG,-0.365
15,CAATCTCG,-0.175
16,GACGTATC,-0.0386
17,AAGGACGA,-0.334
18,AGGTATAC,-0.0409
19,ACCGACAC,0.361
20,ACCGGGCC,0.306
21,GCTTTGAC,0.0766
22,TAGTAGGA,-0.0819
23,TCCAACAA,-0.129
24,ACTAACAA,-0.0751
25,CTGGGGAA,-0.131

row,Sequence,PBM E-score
1,AGAACCTC,-0.0298
2,TAATTGTA,-0.148
3,CCGTAGCG,0.118
4,ATCATCAC,-0.193
5,ACACCGTA,0.346
6,ACTTCGCA,-0.217
7,CAGGTAGC,-0.176
8,CCTCATCC,-0.0928
9,TCAAGTGA,-0.298
10,CTACGGGC,0.246
11,CAATGCGC,-0.156
12,TGGGAAAA,-0.208
13,TCTCAGAA,-0.297
14,AATATTGA,-0.098
15,AAGCATTA,-0.125
16,CTGCACTA,-0.0814
17,AGGCATAA,-0.0575
18,CAATATAG,-0.185
19,CAGAAAGC,-0.165
20,GGTTTAAA,0.173
21,ACGTCGAA,-0.193
22,AAGTCCGT,0.454
23,GTGCACAA,-0.179
24,AGTACCGC,0.435
25,ATGGTCGG,0.33

row,Sequence,PBM E-score
1,ATTGTCTG,-0.17
2,CCGACCAC,0.298
3,AAATTACT,-0.148
4,CTGAATTA,-0.151
5,CTGCTAGC,-0.0619
6,AGCGCAAT,-0.212
7,AGATCTTG,-0.216
8,AACTCTGA,-0.156
9,ACTAGGAC,-0.082
10,GAAAGTGA,-0.238
11,AACCAGAA,-0.137
12,CGATACGA,-0.06
13,ACTTTTAT,0.0791
14,ATCATTTG,-0.216
15,GGGTAATA,0.143
16,TGGGTACA,-0.137
17,TAGCGTGA,-0.222
18,AATAAGAT,-0.0589
19,CGGCTCGC,-0.0672
20,CATTGAAG,-0.242
21,TTAGCGAA,-0.057
22,CAGCAAAC,-0.18
23,GATATGTA,-0.0956
24,CCCTACTA,0.0818
25,CTTACTGA,-0.164

row,Sequence,PBM E-score
1,CGTTATGC,0.0268
2,ACTTTGTA,-0.207
3,CGGCCTAC,0.00503
4,ATCTACAC,-0.164
5,CCCGATAG,0.248
6,CAATTCCA,-0.216
7,CCCCTACC,-0.0642
8,ACAAAAAG,-0.0544
9,ATGCTGAC,-0.217
10,ACAAGCAT,-0.155
11,GAAGTAGA,-0.158
12,AGCCACAG,-0.219
13,TAAACGGA,0.161
14,TCACTGCA,-0.228
15,CGATGCTC,0.102
16,GCAATAGC,0.0802
17,ATCAGTAA,-0.13
18,CGCAATGA,-0.164
19,GGTCGACC,0.297
20,CTTCTTCA,-0.196
21,CATGCCCG,0.122
22,GCAAAATA,0.048
23,TAAGAATA,-0.00633
24,ATGCGTCG,0.0983
25,ACAGAGTG,-0.139

row,Sequence,PBM E-score
1,AGAATAAA,0.0556
2,GTGCCTAA,-0.104
3,AATGATAT,-0.0624
4,AGGGACAT,-0.166
5,GACGGCTA,0.0665
6,CCGATAGA,0.249
7,CAACAACG,-0.0434
8,CCTTTAGA,-0.193
9,CAGTAAAA,0.0217
10,ACGGTATC,0.246
11,ATCGTGAA,-0.018
12,CTAATGAC,-0.0836
13,CCAGAAAA,-0.296
14,CCGTGGTA,-0.0527
15,AACGGCCC,0.14
16,CATCATAA,-0.135
17,GTCGTGAA,-0.0951
18,TGCCAGCA,-0.112
19,GCGGTACC,0.295
20,GAATTAGC,-0.0839
21,AGAAGTAC,-0.0915
22,AAAGTAAT,-0.00491
